Reference: the antibiotic and cytotoxicity screens of Wong et al. (2023)
This is one part of the list.

Key:
[1] = system: HSkMC (human skeletal muscle cells); assay: cytotoxicity call (relative viability < 0.9); settings: 10 µM
[2] = system: HepG2; assay: cytotoxicity call (relative viability < 0.9); settings: 10 µM
[3] = system: S. aureus RN4220; assay: growth inhibition call (relative growth <= 0.2); settings: 50 µM

Structure (SMILES): CN1[C@@H]2CNc3ccccc3[C@@H]2[C@@H]1CO
- cytotoxicity call [1]: inactive
- cytotoxicity call [2]: inactive
- growth inhibition call [3]: inactive

Structure (SMILES): CN1CCN(C(=O)OC2c3nccnc3C(=O)N2c2ccc(Cl)cn2)CC1 (configuration not stated)
- cytotoxicity call [1]: inactive
- cytotoxicity call [2]: inactive
- growth inhibition call [3]: inactive

Structure (SMILES): CNC(C)C(O)c1ccccc1.Cl (configuration not stated)
- cytotoxicity call [1]: inactive
- cytotoxicity call [2]: inactive
- growth inhibition call [3]: inactive

Structure (SMILES): Cl.NCCc1ccccc1
- cytotoxicity call [1]: inactive
- cytotoxicity call [2]: inactive
- growth inhibition call [3]: inactive

Structure (SMILES): O=C1[O][Pt]2([NH][C@@H]3CCCC[C@H]3[NH]2)[O]C1=O
- cytotoxicity call [1]: active
- cytotoxicity call [2]: inactive
- growth inhibition call [3]: inactive

Structure (SMILES): CC1=CC(=O)c2c(O)cccc2C1=O
- cytotoxicity call [1]: active
- cytotoxicity call [2]: active
- growth inhibition call [3]: active

Structure (SMILES): CC(C)[C@H](N)C(=O)N1CCC[C@H]1B(O)O
- cytotoxicity call [1]: inactive
- cytotoxicity call [2]: inactive
- growth inhibition call [3]: inactive

Structure (SMILES): COC1C(O)C(C)OC(OC2CCC3(C)C4CCC5(C)C(C6=CC(=O)OC6)CCC5(O)C4CCC3(O)C2)C1O (configuration not stated)
- cytotoxicity call [1]: inactive
- cytotoxicity call [2]: inactive
- growth inhibition call [3]: inactive

Structure (SMILES): Cc1ccc(OC(=O)N(C)C[C@@H]2OCc3ccccc3-c3c(n(C)c4ccccc34)C(=O)N([C@@H](C)CO)C[C@@H]2C)cc1
- cytotoxicity call [1]: inactive
- cytotoxicity call [2]: inactive
- growth inhibition call [3]: inactive

Structure (SMILES): CNC(=O)Oc1cccc2ccccc12
- cytotoxicity call [1]: inactive
- cytotoxicity call [2]: inactive
- growth inhibition call [3]: inactive

Structure (SMILES): COc1cccc(C=O)c1OC
- cytotoxicity call [1]: inactive
- cytotoxicity call [2]: inactive
- growth inhibition call [3]: inactive

Structure (SMILES): O=[N+]([O-])c1c(NCCO)ccc2nonc12
- cytotoxicity call [1]: inactive
- cytotoxicity call [2]: inactive
- growth inhibition call [3]: inactive

Structure (SMILES): Cc1nc2c(=O)n(C)c(=O)nc-2n(C)n1
- cytotoxicity call [1]: active
- cytotoxicity call [2]: active
- growth inhibition call [3]: inactive

Structure (SMILES): CC1(C)OCC2(CNC2)CO1
- cytotoxicity call [1]: inactive
- cytotoxicity call [2]: inactive
- growth inhibition call [3]: inactive

Structure (SMILES): COc1ccc([C@H]2CC(=O)N3CCNC[C@@H]23)cc1
- cytotoxicity call [1]: inactive
- cytotoxicity call [2]: inactive
- growth inhibition call [3]: inactive

Structure (SMILES): CCN(C)C(=O)Oc1cccc(C(C)N(C)C)c1.O=C(O)C(O)C(O)C(=O)O (configuration not stated)
- cytotoxicity call [1]: inactive
- cytotoxicity call [2]: inactive
- growth inhibition call [3]: inactive

Structure (SMILES): N[C@@H]1C[C@H]1c1ccccc1
- cytotoxicity call [1]: inactive
- cytotoxicity call [2]: inactive
- growth inhibition call [3]: inactive

Structure (SMILES): CN1CC(=O)N(c2cccnc2)C[C@]12CCNC2
- cytotoxicity call [1]: inactive
- cytotoxicity call [2]: inactive
- growth inhibition call [3]: inactive

Structure (SMILES): O=C(NC[C@H]1CC[C@]2(CNCCOC2)O1)c1ccnnc1
- cytotoxicity call [1]: inactive
- cytotoxicity call [2]: inactive
- growth inhibition call [3]: inactive

Structure (SMILES): CC(=O)Oc1ccc(Cl)c2cccnc12
- cytotoxicity call [1]: inactive
- cytotoxicity call [2]: active
- growth inhibition call [3]: inactive

Structure (SMILES): NC(=O)C12CC(CN1)C2
- cytotoxicity call [1]: inactive
- cytotoxicity call [2]: inactive
- growth inhibition call [3]: inactive

Structure (SMILES): NCCc1nccs1
- cytotoxicity call [1]: inactive
- cytotoxicity call [2]: inactive
- growth inhibition call [3]: inactive

Structure (SMILES): CC(=C1C(=O)NC(=O)NC1=O)c1ccc(N)cc1
- cytotoxicity call [1]: inactive
- cytotoxicity call [2]: inactive
- growth inhibition call [3]: inactive

Structure (SMILES): CC12CC(=O)C3C(CCC4=CC(=O)CCC43C)C1CCC2=O (configuration not stated)
- cytotoxicity call [1]: inactive
- cytotoxicity call [2]: inactive
- growth inhibition call [3]: inactive

Structure (SMILES): [N-]=[N+]=NCc1ccccc1C[C@]1(C(=O)N2CCOCC2)N=C(c2ccc(OCCCO)cc2)O[C@H]1c1ccccc1N=[N+]=[N-]
- cytotoxicity call [1]: inactive
- cytotoxicity call [2]: active
- growth inhibition call [3]: inactive

Structure (SMILES): NNCc1ccccc1
- cytotoxicity call [1]: inactive
- cytotoxicity call [2]: inactive
- growth inhibition call [3]: inactive

Structure (SMILES): CC(C)c1c(CN(C)C(C)Cc2ccccc2)n(C)n(-c2ccccc2)c1=O (configuration not stated)
- cytotoxicity call [1]: inactive
- cytotoxicity call [2]: inactive
- growth inhibition call [3]: inactive

Structure (SMILES): CC(C)[C@@]1(NC(=O)[C@@H]2C[C@@H]3c4cccc5[nH]cc(c45)C[C@H]3N(C)C2)O[C@@]2(O)[C@@H]3CCCN3C(=O)[C@H](Cc3ccccc3)N2C1=O
- cytotoxicity call [1]: inactive
- cytotoxicity call [2]: inactive
- growth inhibition call [3]: inactive

Structure (SMILES): Cc1o[nH]c(=O)c1C[C@@H](N)C(=O)O
- cytotoxicity call [1]: inactive
- cytotoxicity call [2]: inactive
- growth inhibition call [3]: inactive

Structure (SMILES): C[C@H](N)Cc1cnc[nH]1
- cytotoxicity call [1]: inactive
- cytotoxicity call [2]: inactive
- growth inhibition call [3]: inactive

Structure (SMILES): CC(N)(Cc1ccccc1)c1ccccc1 (configuration not stated)
- cytotoxicity call [1]: inactive
- cytotoxicity call [2]: inactive
- growth inhibition call [3]: inactive

Structure (SMILES): NC1(c2ccc(F)cc2)CCC1
- cytotoxicity call [1]: inactive
- cytotoxicity call [2]: inactive
- growth inhibition call [3]: inactive

Structure (SMILES): COCCC(=O)N1C[C@H]2CCN[C@H]2C1
- cytotoxicity call [1]: inactive
- cytotoxicity call [2]: inactive
- growth inhibition call [3]: inactive

Structure (SMILES): C[C@@H]1O[C@@H](O[C@H]2CC[C@]3(C=O)[C@H]4CC[C@]5(C)[C@@H](C6=CC(=O)OC6)CC[C@]5(O)[C@@H]4CC[C@]3(O)C2)[C@H](O)[C@H](O)[C@H]1O
- cytotoxicity call [1]: active
- cytotoxicity call [2]: active
- growth inhibition call [3]: inactive

Structure (SMILES): N[C@@H](Cn1oc(=O)[nH]c1=O)C(=O)O
- cytotoxicity call [1]: inactive
- cytotoxicity call [2]: inactive
- growth inhibition call [3]: inactive

Structure (SMILES): CC(C)N1CCO[C@H]2CN(C(=O)N(C)C)C[C@@H]21
- cytotoxicity call [1]: inactive
- cytotoxicity call [2]: inactive
- growth inhibition call [3]: inactive

Structure (SMILES): O=C1CCCN1CC#CCN1CCCC1
- cytotoxicity call [1]: inactive
- cytotoxicity call [2]: inactive
- growth inhibition call [3]: inactive

Structure (SMILES): C=C(C)[C@@H]1[C@H]2OC(=O)[C@H]1[C@]1(O)C[C@H]3O[C@]34C(=O)O[C@H]2[C@]14C
- cytotoxicity call [1]: inactive
- cytotoxicity call [2]: inactive
- growth inhibition call [3]: inactive

Structure (SMILES): CN(C)C1=NC(=O)C2(CCNCC2)N1
- cytotoxicity call [1]: inactive
- cytotoxicity call [2]: inactive
- growth inhibition call [3]: inactive
